# Assay results reported in ChEMBL document CHEMBL4888484, “Replenishing the malaria drug discovery pipeline: Screening and hit evaluation of the MMV Hit Generation Library 1 (HGL1) against asexual blood stage Plasmodium falciparum ,using a nano luciferase reporter read-out” (2022).
# Screen size: about 150,000 compounds; about 540 (0.36%) showed an effect of 50% or more. The list shows a part of the results.
# System: Plasmodium falciparum
# Assay: Primary screen in NF54 nanoGlo assay, in single point, at 2uM, 72h; a lower Z score goes with more inhibition
# Format: functional, Erythrocyte
# Conditions: timepoint 72 hour
Structure (SMILES),% Inhibition,Z score
Cc1nc(NC(=O)CC(C)(C)C)sc1C,9%,-0.84
Cc1cnccc1CCNC1C2CCOC2C12CCCC2 (stereo not given),11%,-1.57
CCn1ncc2ccc(N[C@H]3CCOC4(CCOCC4)C3)cc21,-4%,0.77
CC(C)c1nccn1CCN1CCC(O)CC1,-3%,0.5
COc1ccc(-c2noc(COc3ccc(C)nc3C)n2)c(OC)c1OC,11%,-1.84
Cn1nc(CN(C(=O)Nc2ccccc2)C2CCCC2)c2c1CCC2,-13%,2.52
O=C(c1cc2cc(F)ccc2s1)N1CC(Nc2cccnn2)C1,-10%,1.12
C[C@H]1CCCCN1S(=O)(=O)N1CCN(Cc2ccno2)CC1,-9%,1.01
CC1CC(NC(=O)C2(C)CC3CC3C2)C1 (stereo not given),-12%,1.34
Cc1csc([C@H](C)NC(=O)CCCN2CCCCC2)n1,9%,-1.3
O=C(C1CCC1)N1CC[C@H](N2C(=O)CNC2=O)C1,-12%,2.35
Nc1nc(-c2cccc3cccnc23)c2cn[nH]c2n1,-17%,1.5
Cc1ccc(-c2nnc(-c3cccc(S(C)(=O)=O)c3)o2)o1,-11%,1.82
O=C1C[C@H]2CC[C@@H](CN1)N2C(=O)c1ccc2[nH]c(=O)[nH]c2c1,-9%,1.7
O=C(Nc1cccnc1)C1CN(C(=O)COc2ccccc2F)C1,-5%,0.81
C[C@@H](CO)NC(=O)Nc1cccc(Cl)c1F,-13%,1.18
CC(C)c1ncc(NC(=O)c2cc(Br)cn2C)cn1,9%,-1.21
Cc1cccc(N2CCN(S(=O)(=O)c3cc(C(=O)N4CCC(C)CC4)cs3)C[C@@H]2C)c1,-8%,1.44
CCC1(CC)CN(C(=O)c2ccc(OC(C)C)cn2)C1,-8%,1.51
CCOc1c(CNC)cc(Br)cc1OC,2%,-0.27
CC[C@@H](COC)NC(=O)c1ccccc1OC,-6%,0.67
Cc1ccccc1Cn1cnc2c1c(=O)n(C1CCCC1)c(=O)n2-c1ccccc1,-7%,0.85
O=S(=O)(Nc1ccc(Cl)cc1-n1cccn1)c1cccc(F)c1,-1%,0.16
O=C(c1cc[nH]n1)N(Cc1ccccc1F)C1CCC1,10%,-1.54
COc1ccc(OC)c(-c2c(C#N)c(O)nc3c2c(C)nn3-c2ccccc2)c1,0%,-0.07
